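Grown in 96-well plates, cells were treated for 48 hours with each compound at five concentrations. Insufficient inhibition: endpoint recorded as highest concentration tested. GI50: concentration for 50% inhibition of growth.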 The source holds more than one record for some entries. The other results are left out here. There may be further records. Records of one sample usually come from different ranges of test concentrations, not given here; some values may only mark the edge of a range. Records carry a tag for their origin. A, B and so on number the origins entry by entry.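 The concentration for full growth arrest is given as TGI.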
Key:
Experiment in all cases: DTP human tumour cell line panel, 48 h
A549 NSCLC = test system: A549 NSCLC
ACHN renal = test system: ACHN renal
MDA-MB-231 breast = test system: MDA-MB-231 breast
UACC-257 melanoma = test system: UACC-257 melanoma
NCI/ADR-RES ovarian = test system: NCI/ADR-RES ovarian
OVCAR-4 ovarian = test system: OVCAR-4 ovarian
MDA-MB-435 = test system: MDA-MB-435
IGROV1 ovarian = test system: IGROV1 ovarian
MCF7 breast = test system: MCF7 breast
HOP-18 NSCLC = test system: HOP-18 NSCLC
PC-3 prostate = test system: PC-3 prostate
HOP-62 NSCLC = test system: HOP-62 NSCLC
DMS 114 small cell lung = test system: DMS 114 small cell lung
M19-MEL melanoma = test system: M19-MEL melanoma
KM20L2 colon = test system: KM20L2 colon
OVCAR-8 ovarian = test system: OVCAR-8 ovarian
SNB-75 CNS = test system: SNB-75 CNS
SK-MEL-28 melanoma = test system: SK-MEL-28 melanoma
A498 renal = test system: A498 renal
NCI-H226 lung = test system: NCI-H226 lung
786-0 renal = test system: 786-0 renal
HCC-2998 colon = test system: HCC-2998 colon
HT29 colon = test system: HT29 colon
CCRF-CEM leukemia = test system: CCRF-CEM leukemia
HS 578T breast = test system: HS 578T breast
HL-60(TB) leukemia = test system: HL-60(TB) leukemia
SNB-19 CNS = test system: SNB-19 CNS
TK-10 renal = test system: TK-10 renal
DU-145 prostate = test system: DU-145 prostate
BT-549 breast = test system: BT-549 breast
T-47D breast = test system: T-47D breast
MALME-3M melanoma = test system: MALME-3M melanoma

COc1cccc2c1C(=O)c1c(O)c3c(c(O)c1C2=O)C[C@@](O)(C(C)=O)C[C@@H]3OC1CC(N)C(O)C(C)O1 (some centres undefined)
TGI (A549 NSCLC): 18.9 µM [1 test] and 1.89 µM [mean of 37 tests] and 2.64 µM [mean of 65 tests] | TGI (ACHN renal): 174 nM, 17.2 µM [sample A, 1 test] and 253 nM [sample A, mean of 12 tests] and 451 nM [sample A, mean of 61 tests] and 97.4 nM [sample B, mean of 2 tests] | TGI (MDA-MB-231 breast): 2.65 µM, 1.23 µM, 769 nM [sample A, mean of 2 tests] and 2.37 µM [sample A, mean of 28 tests] and 1.19 µM [sample B, mean of 2 tests] | TGI (UACC-257 melanoma): 958 nM, > 5.01 µM [sample A, 1 test] and 675 nM, 443 nM [sample A, mean of 2 tests] and 784 nM [sample A, mean of 36 tests] and 1.11 µM [sample A, mean of 67 tests] and 357 nM [sample B, mean of 2 tests] | TGI (NCI/ADR-RES ovarian): 29, 8.53, 24.9, 19.8 µM [sample A] and 17 µM [sample B] | TGI (OVCAR-4 ovarian): > 5.01 µM [sample A, 1 test] and 2.35 µM, 1.68 µM, 686 nM [sample A, mean of 2 tests] and 1.77 µM [sample A, mean of 38 tests] and 2.16 µM [sample A, mean of 64 tests] and 457 nM [sample B, mean of 2 tests] | TGI (MDA-MB-435): 626 nM [sample A, 1 test] and 677 nM, 334 nM [sample A, mean of 2 tests] and 936 nM [sample A, mean of 23 tests] and 305 nM [sample B, mean of 2 tests] | TGI (IGROV1 ovarian): 1.69 µM, 6.66 µM [sample A, 1 test] and 1.74 µM, 469 nM [sample A, mean of 2 tests] and 2.16 µM [sample A, mean of 41 tests] and 3.12 µM [sample A, mean of 63 tests] and 1.35 µM [sample B, mean of 2 tests] | TGI (MCF7 breast): 6.63, 2.64, 4.83, 3.69, 1.41 µM [sample A] and 4.17 µM [sample B] | TGI (HOP-18 NSCLC): 1.66 µM, 658 nM, 9.08 µM | TGI (PC-3 prostate): 1.76 µM, 897 nM, 999 nM, 885 nM [sample A] and 447 nM [sample B] | TGI (HOP-62 NSCLC): > 5.01 µM [sample A, 1 test] and 487 nM, 258 nM, 196 nM [sample A, mean of 2 tests] and 274 nM [sample A, mean of 36 tests] and 295 nM [sample A, mean of 66 tests] and 200 nM [sample B, mean of 2 tests] | GI50 (DMS 114 small cell lung): > 5.01 µM [1 test] and 86.5 nM [mean of 35 tests] | TGI (DMS 114 small cell lung): 340 nM, 304 nM, > 5.01 µM | TGI (M19-MEL melanoma): 506 nM, 359 nM, > 5.01 µM | GI50 (KM20L2 colon): > 5.01 µM [1 test] and 123 nM [mean of 38 tests] | TGI (OVCAR-8 ovarian): 384 nM, 622 nM, 6.1 µM [sample A, 1 test] and 548 nM [sample A, mean of 2 tests] and 2.24 µM [sample A, mean of 40 tests] and 2.07 µM [sample A, mean of 70 tests] and 977 nM [sample B, mean of 2 tests] | TGI (SNB-75 CNS): 258 nM, > 5.01 µM [sample A, 1 test] and 848 nM, 181 nM [sample A, mean of 2 tests] and 564 nM [sample A, mean of 42 tests] and 579 nM [sample A, mean of 61 tests] and 181 nM [sample B, mean of 2 tests] | TGI (SK-MEL-28 melanoma): 1.26 µM, 1.22 µM, 745 nM, 1.04 µM, > 15.8 µM [sample A] and 625 nM [sample B] | TGI (A498 renal): 5.42 µM, 784 nM, 394 nM, 633 nM [sample A] and 561 nM [sample B] | TGI (NCI-H226 lung): 193 nM, 143 nM, 276 nM, 175 nM, > 5.01 µM [sample A] and 187 nM [sample B] | TGI (786-0 renal): 663 nM, 1.32 µM, 221 nM, 1.52 µM, 470 nM, > 5.01 µM [sample A] and 792 nM [sample B] | TGI (HCC-2998 colon): 689 nM, 996 nM, 414 nM, 1.26 µM, 818 nM, > 5.01 µM [sample A] and 904 nM [sample B] | TGI (HT29 colon): 16.6 µM [sample A, 1 test] and 1.73 µM, 842 nM, 1.24 µM [sample A, mean of 2 tests] and 2.24 µM [sample A, mean of 43 tests] and 2.27 µM [sample A, mean of 71 tests] and 1.24 µM [sample B, 1 test] | TGI (CCRF-CEM leukemia): 713 nM, 564 nM, 842 nM, 85.9 nM, 1.94 µM, > 5.01 µM [sample A] and 448 nM [sample B] | TGI (HS 578T breast): 800 nM, 1.6 µM, 597 nM, 297 nM [sample A] and 1.63 µM [sample B] | TGI (HL-60(TB) leukemia): 737 nM, 349 nM, 7.93 µM, < 12.9 nM, 139 nM, > 5.01 µM [sample A] and 176 nM [sample B] | TGI (SNB-19 CNS): > 5.01 µM [sample A, 1 test] and 883 nM, 1.09 µM, 3.66 µM [sample A, mean of 2 tests] and 3.19 µM [sample A, mean of 39 tests] and 2.38 µM [sample A, mean of 66 tests] and 1.85 µM [sample B, mean of 2 tests] | TGI (TK-10 renal): 193 nM, > 5.01 µM [sample A, 1 test] and 14.3 µM [sample A, mean of 14 tests] and 5.95 µM, 1.59 µM [sample A, mean of 2 tests] and 6.53 µM [sample A, mean of 70 tests] and 772 nM [sample B, mean of 2 tests] | GI50 (DU-145 prostate): 222 nM, 29.4 nM [sample A, 1 test] and 75.6 nM [sample A, mean of 22 tests] and 64.6 nM [sample B, 1 test] | TGI (DU-145 prostate): 165 nM [sample A, 1 test] and 1.73 µM [sample A, mean of 22 tests] and 15.3 µM [sample B, 1 test] | TGI (BT-549 breast): 1.86 µM, 551 nM, 857 nM [sample A, mean of 2 tests] and 1.09 µM [sample A, mean of 21 tests] and 1.34 µM [sample B, 1 test] | TGI (T-47D breast): 2.46 µM, 282 nM, 2.07 µM [sample A, mean of 2 tests] and 1.99 µM [sample A, mean of 25 tests] and 1.09 µM [sample B, mean of 2 tests] | TGI (MALME-3M melanoma): 53.9 nM, 423 nM, 525 nM, 196 nM, 349 nM, > 5.01 µM [sample A] and 161 nM [sample B]

Source: PubChem BioAssay (NCI)
